PubChem BioAssay AID1745853 (National Center for Advancing Translational Sciences (NCATS), 2022)
Several values for one entry are separate records, joined by “and”; a condition that tells them apart may be missing. Identical values can stand only once. Some of the results follow. Further columns of the screen follow, without active or inactive calls.

What was measured:
Test in all cases: Primary Screen for Target Class Profiling of Small Molecule Inhibitors of Methyltransferases
[1] = target: Glycine N-methyltransferase (Homo sapiens) (UniProt Q14749); conditions: purified enzyme, MTase-Glo SAH luminescence; measured here: GNMT inhibition; at 40 µM; stronger effect = lower value
How it was run: (§1)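 Each enzyme was reacted with SAM and its substrate, with compounds tested once at 40 uM; SAH formed was read by MTase-Glo luminescence.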

[2] = target: Guanidinoacetate N-methyltransferase (Homo sapiens) (UniProt Q14353); conditions: purified enzyme, MTase-Glo SAH luminescence; measured here: GAMT inhibition; at 40 µM; stronger effect = lower value
How it was run: as §1

[3] = target: Histamine N-methyltransferase (Homo sapiens) (UniProt P50135); conditions: purified enzyme, MTase-Glo SAH luminescence; measured here: HNMT inhibition; at 40 µM; stronger effect = lower value
How it was run: as §1

[4] = target: Nicotinamide N-methyltransferase (Homo sapiens) (UniProt P40261); conditions: purified enzyme, MTase-Glo SAH luminescence; measured here: NNMT inhibition; at 40 µM; stronger effect = lower value
How it was run: as §1

[5] = target: Phenylethanolamine N-methyltransferase (Homo sapiens) (UniProt P11086); conditions: purified enzyme, MTase-Glo SAH luminescence; measured here: PNMT inhibition; at 40 µM; stronger effect = lower value
How it was run: as §1
% is set by controls: 0 for no effect and ±100 for the full control effect.

| Structure (SMILES) | activity change, negative = inhibition [1] | activity change, negative = inhibition [2] | activity change, negative = inhibition [3] | activity change, negative = inhibition [4] | activity change, negative = inhibition [5] |
| --- | --- | --- | --- | --- | --- |
| CCNC(=O)N1CCCC(Cc2noc(-c3ccccc3)n2)C1 (stereo not given) | -7% | -6.02% | -4.92% | -8.35% | -3.25% |
| CN(CCO)C[C@@H]1CN(C(=O)CCc2nc3ccc(F)cc3[nH]2)C[C@@H]1CO | -6.28% | -8.63% | -6.82% | -15.2% | -11.7% |
| COc1cccc(CNC(=O)[C@@H]2C[C@@H](O)CN2C2CCN(C(=O)Cc3c[nH]c4ccccc34)CC2)c1 | -8.77% | -7.88% | -2.63% | -11.7% | -5.27% |
| Cc1cc(C(=O)Nc2cc(Nc3ccc4c(/C=C/c5ccccn5)n[nH]c4c3)ccc2F)n(C)n1 | -20.4% | -3.39% | -4.72% | -21.1% | -12.7% |
| Cc1noc(-c2cccs2)c1C(=O)NCCC(c1ccccc1)c1ccccc1 | -1.95% | 0.437% | 1% | -5.24% | -1.53% |
| Cc1ccc(N2C(=O)c3ccc(-c4ccco4)n3CC2(C)C(=O)NC2CCCC2)c(C)c1 (stereo not given) | -2.65% | 3.32% | -1.88% | -3.24% | -5.32% |
| COCC1CN(C(C)=O)CC12CCN(C(=O)CC1CCCCC1)CC2 (stereo not given) | -3.9% | -6.87% | -1.55% | -7.03% | 1.07% |
| COc1c(C)c(OCC=C(C)C)cc2c1CNC2=O | 1.17% | 0.988% | 6.04% | -22.4% | -5.3% |
| O=C(c1ccccc1-c1ncc[nH]1)N1CCOC(Cc2cccc(F)c2)C1 (stereo not given) | 0.084% | 0.777% | 2.27% | -2.72% | 8.64% |
| CC1(C(=O)NC2CCCCCC2)Cn2c(cc3sccc32)C(=O)N1Cc1ccc(F)cc1 (stereo not given) | -9.93% | 0.734% | -10.9% | -15.3% | -11.5% |
| COc1ccc(CN2C(=O)c3cc(-c4cccs4)nn3CC2(C)C(=O)NC2CCCCC2)cc1 (stereo not given) | 3.72% | 2.13% | 8.31% | 12.1% | 3.6% |
| CS(=O)(=O)N1CCCN(C(=O)CCCc2ccccc2)c2ccccc21 | -3.49% | -1.42% | 0.932% | -7.6% | -1.77% |
| COC(=O)c1ncn2c1C(=O)N(c1cccc(C)c1C)C(C)(C(=O)NCc1ccccc1)C2 (stereo not given) | -2.71% | 0% | 6.11% | 2.37% | 1.79% |
| O=C(Cn1cccc1-c1nc(-c2ccc(F)cc2)no1)NCc1ccccc1Cl | -1.73% | -0.327% | -1.8% | 1.72% | -4.68% |
| CCN1C(=O)c2cc(C(=O)NCCc3ccc(SC)cc3)nn2CC1(C)C(=O)NC1CCCC1 (stereo not given) | 7.95% | 0.756% | -0.649% | 6.31% | 7.21% |
| CC(C)(C)c1ccc(C(=O)Nc2cn3cc(-n4ccnc4)ccc3n2)cc1 | 0.289% | 8.32% | 9.23% | -11.8% | 5.56% |
| COCCCNC(=O)N1CCCC(c2[nH]ccc2C(N)=O)C1 (stereo not given) | -1.79% | -2.02% | 0.459% | 0.692% | -1.35% |
| CCOC(=O)c1cc2n(n1)CC(C)(C(=O)NCCOC)N(c1ccc(OCC)cc1)C2=O (stereo not given) | 7.72% | 0.477% | 9.35% | 11.7% | 8% |
| CCN1C(=O)c2cc(C(=O)NCc3ccc4c(c3)OCO4)nn2CC1(C)C(=O)NC1CCCC1 (stereo not given) | 0.012% | 3.98% | -3.84% | 3.97% | -0.406% |
| CC(=O)c1c(O)cc2c(c1C)C(=O)CC(O)C2 (stereo not given) | 4.29% | 7.04% | 11.4% | -5.82% | 4.45% |

| Structure (SMILES) | activity change, negative = inhibition [1] | activity change, negative = inhibition [2] | activity change, negative = inhibition [3] | activity change, negative = inhibition [4] | activity change, negative = inhibition [5] |
| --- | --- | --- | --- | --- | --- |
| COc1ccc([C@@H]2CN(C(=O)CCc3ccsc3)C[C@H]2N(C)C)cc1 | 1.17% | -0.258% | -2.6% | -0.321% | 8.61% |
| CCN(CC)CCCNC(=O)c1cc2n(n1)CC(C)(C(=O)NC1CCCC1)N(C)C2=O (stereo not given) | 5.6% | 5.92% | 2.04% | 3.4% | 1% |
| C=CCn1c(=O)c2ccc(C(=O)NC(C)C)cc2n2c(=O)n(CC(=O)Nc3cc(F)ccc3F)nc12 | 3.81% | 4.63% | 3.75% | -3.6% | -0.013% |
| CCOc1ccc(CN2C(=O)c3cc(-c4ccccc4)nn3CC2(C)C(=O)NCCCOC)cc1 (stereo not given) | -8.5% | -0.376% | -1.93% | -2.17% | -2.11% |
| COc1ccc(OC)c(CCNC(=O)C(C)n2ccc3cc(S(=O)(=O)N4CCCC4)ccc32)c1 (stereo not given) | 0.218% | 3.39% | -2.82% | -0.93% | -2.92% |
| COc1ccccc1OCCN1CC(COc2cccc3[nH]c4ccccc4c23)OCC1=O (stereo not given) | 1.15% | -4.65% | 8.62% | -19.3% | -2.75% |
| CN1C(=O)c2cc3ccccc3n2CC1(C)C(=O)NCC(=O)NCCc1ccco1 (stereo not given) | -6.58% | 4.23% | -3.08% | -1.98% | -4.45% |
| COc1ccc(CN2C(=O)c3nc4ccccc4n3CC2(C)C(=O)NCc2ccccc2)c(OC)c1 (stereo not given) | -0.413% | 0% | 3.81% | -21.1% | 3.58% |
| C[C@H](/C=C/[C@@]1(O)[C@H](C)CC(=O)CC1(C)C)O[C@@H]1O[C@H](CO[C@@H]2OC[C@@H](O)[C@H](O)[C@H]2O)[C@@H](O)[C@H](O)[C@H]1O | 0% | 3.06% | 2.12% | -9.19% | 4.78% |
| COc1cccc(CCC(=O)N2CCCCC2c2nc(-c3ccncc3)n[nH]2)c1 (stereo not given) | -3.92% | -2.18% | -3.17% | -5.07% | -1.62% |
| CC(C)NC(=O)c1ccc2c(=O)n(C(C)C)c3nn(Cc4c(F)cccc4Cl)c(=O)n3c2c1 | 4.67% | 2.7% | 5.94% | 0.423% | -0.698% |
| CCCn1c(=O)c2ccc(Cl)cc2n2c(=O)n(Cc3ccc(Cl)cc3)nc12 | 2.66% | 4.97% | 9.05% | -7.04% | 2.96% |
| C=CC[C@H](N)C(=O)O | -7.45% | 0.721% | -2.42% | -9.95% | -0.361% |
| Brc1ccc([C@H]2CN3CCSC3=N2)cc1 | -1.07% and -17.5% | -5.42% and 8.57% | -6.9% and -12.8% | -13.9% and -10.9% | 0.916% and -1.25% |
| CCOC(=O)c1cc2n(n1)CC(C)(C(=O)NCc1ccccc1)N(Cc1ccccc1OCC)C2=O (stereo not given) | -1.64% | 0.633% | 0.723% | -4.13% | -0.773% |
| CC1(C(=O)NC2CCCCCC2)Cn2c(cc3ccccc32)C(=O)N1Cc1ccccn1 (stereo not given) | -2.32% | 1.8% | -5.23% | -11.2% | -6.37% |
| Cc1cccc(-c2nnn3c2nc(NCC2CCCO2)c2ccccc23)c1 (stereo not given) | -8.12% | 5.05% | -1.66% | 1.76% | -7.53% |
| O=C(CSc1ccncc1)N1CCN2C(=O)N(Cc3ccccc3)C(=O)[C@H]2C1 | -5.4% | -7.4% | -7.6% | -7.55% | -14.2% |
| O=C(O)[C@H]1C[C@H](C(=O)NCc2ccncc2)CN(C(=O)C2CCCC2)C1 | -5.4% | 0.153% | -1.52% | -4.18% | -2.24% |
